# In the supplement of paper PMC3334620:
# In all, about 33,000 sequences were measured (“E-score (-0.5 to 0.5)”: median about -0.053, highest 2% from about 0.37 on). This is one part of the list.
# Target: Hap1 (UniProt P0CE41)
# Assay: PBM E-score (8-mer binding enrichment) (E-score (-0.5 to 0.5)); higher = stronger / more preferred TF binding; most listed sequences are background and not binding sites
# Conditions: protein concentration: 200 nM; construct: GST-DNA-binding domain
# Experimental: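 Universal 'all 10-mer' protein binding microarrays (Agilent AMADID 015681) probed with GST-tagged S. cerevisiae TFs (full-length or DBD) made by in vitro transcription/translation (PURExpress), about 100-200 nM. Bound TF was detected with fluorescent anti-GST. Each ungapped 8-mer (which stands for itself and its reverse complement) is scored by the PBM enrichment score (E-score), a modified Wilcoxon-Mann-Whitney statistic from -0.5 to +0.5, computed with the Universal PBM Analysis Suite. Scale: above 0.35 generally sequence-specific binding.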
# Chain of UniProt P0CE41 (P0CE41 whole entry): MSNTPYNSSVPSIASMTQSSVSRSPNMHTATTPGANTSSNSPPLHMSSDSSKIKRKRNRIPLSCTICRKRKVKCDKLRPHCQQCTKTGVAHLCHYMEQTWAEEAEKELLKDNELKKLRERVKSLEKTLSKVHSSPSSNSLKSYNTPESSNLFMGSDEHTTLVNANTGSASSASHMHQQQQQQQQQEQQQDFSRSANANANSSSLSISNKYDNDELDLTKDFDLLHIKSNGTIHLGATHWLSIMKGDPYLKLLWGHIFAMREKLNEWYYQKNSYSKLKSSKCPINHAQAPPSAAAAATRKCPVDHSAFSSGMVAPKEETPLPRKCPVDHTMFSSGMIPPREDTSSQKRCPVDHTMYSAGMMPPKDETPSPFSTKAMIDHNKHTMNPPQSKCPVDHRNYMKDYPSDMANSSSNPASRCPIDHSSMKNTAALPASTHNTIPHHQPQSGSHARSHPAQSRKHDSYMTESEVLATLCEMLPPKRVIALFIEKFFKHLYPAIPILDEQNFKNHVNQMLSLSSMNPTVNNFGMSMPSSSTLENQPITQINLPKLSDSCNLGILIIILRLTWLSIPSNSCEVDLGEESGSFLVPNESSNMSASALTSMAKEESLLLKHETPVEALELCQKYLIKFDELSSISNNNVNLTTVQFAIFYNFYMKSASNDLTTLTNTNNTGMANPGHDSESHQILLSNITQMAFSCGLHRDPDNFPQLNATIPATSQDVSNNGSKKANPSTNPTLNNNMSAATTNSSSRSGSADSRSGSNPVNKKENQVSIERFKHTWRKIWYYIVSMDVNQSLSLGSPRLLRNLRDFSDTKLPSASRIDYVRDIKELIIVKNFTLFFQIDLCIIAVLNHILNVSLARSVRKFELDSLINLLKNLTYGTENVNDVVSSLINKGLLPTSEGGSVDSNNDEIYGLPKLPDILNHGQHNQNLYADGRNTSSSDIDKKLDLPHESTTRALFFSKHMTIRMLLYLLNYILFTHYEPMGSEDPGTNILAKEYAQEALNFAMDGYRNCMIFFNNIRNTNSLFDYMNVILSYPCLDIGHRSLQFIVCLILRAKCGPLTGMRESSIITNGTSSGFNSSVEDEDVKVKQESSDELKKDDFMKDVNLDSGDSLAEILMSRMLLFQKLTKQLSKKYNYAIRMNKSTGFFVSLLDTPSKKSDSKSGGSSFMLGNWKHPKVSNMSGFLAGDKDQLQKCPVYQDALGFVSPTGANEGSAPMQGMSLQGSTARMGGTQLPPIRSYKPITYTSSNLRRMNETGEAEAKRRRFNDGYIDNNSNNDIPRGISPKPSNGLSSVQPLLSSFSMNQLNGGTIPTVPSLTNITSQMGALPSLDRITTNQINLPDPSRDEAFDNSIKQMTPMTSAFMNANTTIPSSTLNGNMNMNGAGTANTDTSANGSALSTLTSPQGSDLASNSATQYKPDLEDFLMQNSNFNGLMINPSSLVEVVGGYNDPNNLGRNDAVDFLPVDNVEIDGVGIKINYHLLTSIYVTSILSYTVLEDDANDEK
row,Sequence,PBM E-score
1,ACTCGTAC,-0.00354
2,GGCTAACA,0.0243
3,ATACCGAC,0.0107
4,CCAACTGG,-0.22
5,ATTAACTA,-0.0777
6,ATATACCA,-0.185
7,ATTAATGG,0.137
8,GCTGAGTA,-0.104
9,CTAAAAGA,-0.173
10,AATAACGC,0.0403
11,TATATTGA,0.0255
12,ACAACATC,-0.0307
13,ATCCGATC,0.326
14,GCTTATCA,-0.0723
15,AGTCTATC,-0.204
16,CCCTTAAG,0.13
17,GGTGAACC,0.055
18,CTCGTGGC,-0.0819
19,CCCCGATA,0.44
20,CCTAAGTA,-0.0982
21,AACGGCCT,0.074
22,CCGGTGTA,0.355
23,AGTTAGAA,0.0832
24,CACACTTA,-0.072
25,GCAACGTA,-0.306

row,Sequence,PBM E-score
1,GAGGAGTA,-0.0244
2,AGTGGCTG,0.139
3,AGGCCTGA,-0.188
4,ATCGAATG,-0.076
5,CTATGTAA,-0.19
6,CGATCCAA,-0.0472
7,AGCACTAT,-0.257
8,ATGTTGTA,-0.147
9,AGCTGCTG,-0.123
10,CCGTCAGA,-0.0467
11,CCGCCGGC,0.373
12,CTTTCCCC,0.148
13,ACTGAAAC,0.0255
14,ACACAAAA,-0.142
15,CGTCTATA,-0.144
16,ACAGTAGT,-0.192
17,GCGTAGAA,0.0917
18,CACGACCC,-0.0457
19,ACTGTGTG,0.0083
20,AACCTAGT,0.0258
21,ATTTTTAC,-0.182
22,CTAAACGA,-0.00032
23,CTTCTCGA,-0.232
24,GGAAAGGA,0.225
25,AAGTGTGT,-0.26

row,Sequence,PBM E-score
1,GACCTAAC,0.08
2,AACGCCGG,0.397
3,ATGCCCAA,-0.101
4,ACGCGATC,0.0777
5,AGTCTGAT,-0.241
6,CGAGGACA,0.126
7,GAGACACC,0.106
8,GCCGATGA,0.373
9,GGCTTCAC,0.0174
10,CATATAGA,-0.101
11,ATCTGGTG,-0.136
12,ACGAAAGC,-0.0708
13,ATGAACCG,0.162
14,CCCCGAAA,0.348
15,ACCTTAAG,0.00463
16,AATCGTCG,0.122
17,TAATCACA,-0.201
18,ACCGGTGG,0.209
19,CCACAGAC,-0.313
20,GGACTCAC,0.0658
21,CGACCCCC,-0.0393
22,GAGGTCAC,0.0181
23,CCGTCGAC,0.0572
24,GCTGATAC,-0.111
25,CCCCAGGA,-0.26

row,Sequence,PBM E-score
1,AATGACCG,0.331
2,AATGCGCG,0.277
3,GTGGTAGA,-0.121
4,CTCGCGCA,0.148
5,ACACGCCT,-0.258
6,ATCTGCTA,-0.213
7,ACGTTGAC,-0.116
8,CAAGGCGG,-0.17
9,AGAAGCTA,0.0834
10,ATACCCAA,-0.046
11,AATGGCAC,-0.0745
12,GTCCCCAA,-0.0556
13,GCAGGTAA,0.0582
14,TATCAAGA,-0.228
15,AACGCTTG,-0.0274
16,ACCTGATC,-0.109
17,AAACCCTC,0.0772
18,TGTATAAA,-0.264
19,ACAGAACC,-0.201
20,TACTATAA,-0.131
21,CAGCAACC,-0.206
22,AACGATGA,-0.0573
23,ACCCATAT,-0.235
24,GTTTACGA,-0.236
25,ACTCGGAG,0.305

row,Sequence,PBM E-score
1,CAGGCGCG,-0.124
2,CCGCTCCG,0.327
3,CGAGAGCG,0.13
4,ACATTTAA,-0.0555
5,ATGTACGC,-0.161
6,GCCCGCAC,0.142
7,ACGATATG,0.0819
8,GCACGGTA,-0.0221
9,CTGACTCC,-0.0262
10,CTCTTAAC,-0.0311
11,ACGAGAAC,-0.0617
12,GCACTTCC,-0.0201
13,ATTCCCAC,-0.163
14,AATGAGGC,-0.127
15,GCAATCAC,0.204
16,TAGGCAAA,-0.184
17,AAAGGCGG,0.0401
18,AATAGGTC,-0.00292
19,ACCGATTA,0.335
20,GAACAGGC,-0.103
21,CCTCCGAA,0.334
22,AATAGCGA,0.0245
23,GCCCGGAC,0.401
24,AAACCACT,-0.163
25,CTGATTGA,-0.212

row,Sequence,PBM E-score
1,ACTCGCTA,0.12
2,AATACCTG,-0.103
3,ATTGCACA,-0.243
4,CGCACGAC,0.065
5,CGGGGAGC,0.255
6,GAGAAGTA,-0.0211
7,CGTCACAG,-0.122
8,AGTGTGAT,-0.321
9,ACGCACAC,0.0161
10,ATAAGCGA,0.21
11,AATGAGAA,-0.0939
12,CCTGTACC,-0.0649
13,CCGACAAC,0.254
14,ACCCACCT,-0.133
15,AGTCGAAT,-0.0799
16,AGGTGGGC,-0.146
17,AACCGTTC,0.193
18,CCTGTCAC,-0.178
19,TATAACAA,-0.028
20,ATTTCGTC,0.0285
21,CCCGAGGG,0.298
22,GTGAAGTA,-0.065
23,ACTGATCG,-0.15
24,GCCTGGGA,-0.0736
25,AAACTACA,0.0695

row,Sequence,PBM E-score
1,CATCGAAC,-0.0236
2,ACGGCAGA,0.108
3,ATCATGTG,-0.197
4,AACTTAGT,-0.0304
5,ATAATGCG,0.0367
6,GGCTCCCC,0.064
7,CGGGATAC,0.174
8,AGTTCCTA,-0.091
9,CTCCCAGA,-0.279
10,GCCATGGC,-0.107
11,ACAGAAGC,-0.147
12,AGCACCCA,0.00868
13,GAGGGGGA,-0.204
14,ATACGAAC,-0.0356
15,ATTTGATA,-0.103
16,AGCATACT,-0.138
17,AGATCTAG,-0.19
18,CCATACTA,-0.0774
19,CTCGTACC,-0.0597
20,ACGTAAGG,-0.225
21,GCCTCGAC,-0.316
22,ATACACCA,-0.0557
